Results published in article PMC4336329 (PLoS ONE, 2015).
Among all 310,000 compounds or so, about 2,200 (0.71%) showed an effect of 50% or more. The effect is printed as a negative number. The list shows a part of the results.

Biological target: human ether-à-go-go-related gene (hERG) potassium channel (human, UniProt Q12809)
Assay: primary screen, population patch clamp on CHO cells stably expressing hERG

Chain of human ether-à-go-go-related gene (hERG) potassium channel (Q12809 whole entry, looked up): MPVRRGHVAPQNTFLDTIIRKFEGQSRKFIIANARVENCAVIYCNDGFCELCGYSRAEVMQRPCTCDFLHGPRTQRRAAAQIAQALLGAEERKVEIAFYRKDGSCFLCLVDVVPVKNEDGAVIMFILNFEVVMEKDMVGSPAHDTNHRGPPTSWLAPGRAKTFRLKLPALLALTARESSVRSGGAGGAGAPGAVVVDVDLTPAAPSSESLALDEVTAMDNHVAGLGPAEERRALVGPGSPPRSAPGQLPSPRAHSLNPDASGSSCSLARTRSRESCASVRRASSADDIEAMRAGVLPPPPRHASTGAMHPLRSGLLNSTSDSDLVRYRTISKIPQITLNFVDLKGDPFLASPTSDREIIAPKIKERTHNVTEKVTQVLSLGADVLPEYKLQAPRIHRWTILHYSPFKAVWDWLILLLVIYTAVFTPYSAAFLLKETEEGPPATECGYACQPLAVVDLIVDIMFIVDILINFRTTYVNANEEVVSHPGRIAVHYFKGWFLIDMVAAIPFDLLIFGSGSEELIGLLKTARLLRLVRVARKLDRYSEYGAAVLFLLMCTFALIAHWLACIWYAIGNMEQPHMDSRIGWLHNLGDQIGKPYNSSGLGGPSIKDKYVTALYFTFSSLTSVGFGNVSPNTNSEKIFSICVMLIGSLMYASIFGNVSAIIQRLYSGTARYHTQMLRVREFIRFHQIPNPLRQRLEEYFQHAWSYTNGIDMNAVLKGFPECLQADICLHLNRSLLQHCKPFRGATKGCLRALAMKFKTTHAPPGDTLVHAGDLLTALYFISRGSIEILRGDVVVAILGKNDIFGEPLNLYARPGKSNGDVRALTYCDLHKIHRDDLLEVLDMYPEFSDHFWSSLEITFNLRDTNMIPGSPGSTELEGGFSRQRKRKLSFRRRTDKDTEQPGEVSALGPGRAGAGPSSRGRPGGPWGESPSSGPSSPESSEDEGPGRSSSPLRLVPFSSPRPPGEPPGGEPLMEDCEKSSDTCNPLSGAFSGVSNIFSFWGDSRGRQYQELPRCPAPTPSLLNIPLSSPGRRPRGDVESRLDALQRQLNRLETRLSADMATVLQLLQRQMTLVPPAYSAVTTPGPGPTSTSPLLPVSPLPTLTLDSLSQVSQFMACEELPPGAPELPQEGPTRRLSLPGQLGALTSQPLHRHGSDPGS

SMILES	hERG current change (%, negative = inhibition) at 1uM
Cc1ccc(N2CC(C(=O)NCCN3CCOCC3)CC2=O)cc1C (centres unmarked)	8.62%
CCOc1cc(N)c(Cl)cc1C(=O)NCC1CN(Cc2ccc(F)cc2)CCO1.O=C(O)CC(O)(CC(=O)O)C(=O)O (centres unmarked)	-0.642%
CC(C)c1nc2oc3c(=O)[nH]cnc3c2c2c1CCC2	-0.194%
CCC(C)(C)NC(=O)CN(C(=O)CNS(=O)(=O)c1ccc(F)cc1)c1ccc2c(c1)OCCO2	15.7%
O=C(CSc1nnc(-c2ccc(O)cc2)o1)Nc1cccc(O)c1	17.7%
CCCCOc1ccc(/C=N/NC(=S)Nc2cc(C)ccc2C)cc1	0.506%
CCN(CC)N=Nc1ccc(C(=O)[O-])cc1.[K+]	5.98%
COc1ccc(-c2ccc(=O)n(CC(=O)NCC3COCCO3)n2)cc1 (centres unmarked)	8.42%
CC(NCc1ccc(Cl)cc1Cl)C(O)c1ccccc1.Cl (centres unmarked)	-1.57%
CCOC(=O)c1nn(C23CC4CC(CC(C4)C2)C3)c2c1C(=O)N(c1ccc(C)cc1)C2=O	21%
O=C(NCC1CCCO1)c1cn(Cc2ccccc2)nc1-c1ccccc1 (centres unmarked)	14.8%
Nn1c(SCC(=O)Nc2ccc3c(c2)OCCO3)nnc1-c1ccncc1	-12.9%
Cl.O[C@@H]1[C@@H](O)C=C2CCN3Cc4cc5c(cc4[C@H]1C23)OCO5 (some centres unmarked)	16.9%
O=C(O)c1cccc(NC(=S)NC(NC(=O)c2cccc([N+](=O)[O-])c2)C(Cl)(Cl)Cl)c1 (centres unmarked)	-6.23%
COc1cc(/C=C(/C#N)c2nc3ccccc3[nH]2)ccc1OCC(=O)Nc1ccccc1C(C)C	4.01%
CCOC(=O)CC(NC(=O)Cn1nnc(-c2ccccc2)n1)c1ccc(OC)cc1 (centres unmarked)	-4.12%
CC1CCCN(C(=O)CN2C(=O)c3ccccc3C2=O)C1 (centres unmarked)	6.22%
COc1ccc(Nc2ccc(Cl)nn2)cc1	15%
O=C(CCN1C(=O)/C(=C\c2ccccc2F)SC1=S)N1CCCCC1	10.1%
O=C(Nc1ccc2nc(-c3ccc(Br)o3)[nH]c2c1)c1ccco1	1.3%
O=C(CSc1nc2ccccc2c(=O)n1CCCN1CCOCC1)N1CCN(c2ccccc2)CC1	-6.61%
CCOc1ccc2c(c1)/C(=C(\C(Cl)=C(Cl)Cl)[N+](=O)[O-])N2	11%
CCOc1ccc(-n2c(CCc3ccccc3)n[nH]c2=S)cc1	6.33%

SMILES	hERG current change (%, negative = inhibition) at 1uM
CCCC12CN3CC(C)(CN(C1)C3c1ccco1)C2=O (centres unmarked)	6.16%
CC(C)Cn1cnc2c1c(=O)n(C)c(=O)n2C	19.7%
Fc1ccc(C(c2nnnn2Cc2ccccc2)N2CCSCC2)cc1 (centres unmarked)	5.08%
C=CCN1c2ccccc2C(=O)CS1(=O)=O	13.3%
COc1cc2cc(C(=O)O)[nH]c2c(OC)c1OC	11.8%
CCOc1ccc(N(CC(=O)Nc2ccc(C)c(F)c2)C2=NC3CS(=O)(=O)CC3S2)cc1 (centres unmarked)	9.65%
COc1ccc(C(=O)Nc2ccc(NC(C)=O)cc2)cc1S(=O)(=O)N1CCCC1	16.9%
O=C(c1ncc[nH]1)c1cccs1	11.5%
CCn1cc(C(=O)Nc2ccc(Cl)cc2Cl)cn1	2.6%
O=C(CCCOc1ccccc1)Nc1ccc(Cl)cn1	0.0557%
COc1ccccc1CCNC(=O)C1CCC(=O)N(C2CC2)C1 (centres unmarked)	13.4%
O=C(c1ccccc1-c1ccccc1)N1CCOCC1	18.7%
N#Cc1c(N)nc2c(c1-c1ccc(Br)s1)CCCC2	-0.409%
CCc1ccc(NC(=O)COC(=O)CCCC2=NS(=O)(=O)c3ccccc3N2)cc1	4.63%
O=C(Nc1ccccc1)C1=C[C@H](c2csc3ccccc23)C[C@H](OCCCCO)O1	15.7%
CCOc1ccc(S(=O)(=O)N/N=C(\C)c2ccc3c(c2)OCO3)cc1	14.8%
CCn1c(SCC(=O)Nc2oc(-c3ccccc3)c(-c3ccccc3)c2C#N)nnc1-c1ccncc1	-6.58%
COc1ccc(NC(=S)NC(=O)/C=C/c2ccc(F)cc2)cc1	12.7%
Cc1ccc(/C=C/C(=O)NCCCN2CCN(CCCNC(=O)/C=C/c3ccc(C)cc3)CC2)cc1	7.32%
Nc1nonc1-n1nnc(C(=O)N/N=C/c2ccc(OCc3ccccc3F)cc2)c1CN1CCCCC1	9.52%
Cn1cnnc1SCc1ccc(C(=O)n2ncc(C#N)c2N)cc1	14.3%
Cc1cccc(OCC(=O)NCC(=O)N/N=C/c2cccnc2)c1	9.02%
CC(=O)Nc1cc(S(=O)(=O)Nc2ccc(C)cc2)c(C)cc1C	6.6%

SMILES	hERG current change (%, negative = inhibition) at 1uM
C/C(=N/OC(=O)CC(C)C)c1cc(-c2ccc(Cl)cc2)no1	10.9%
N#Cc1ccc(C(=O)CSc2nnc(-c3ccc(C(F)(F)F)cn3)s2)cc1	12.8%
CC1CN(CCC(=O)Nc2ccccc2F)CC(C)O1 (centres unmarked)	11.7%
Cc1cc(C(=O)N2CCCC(N3CCN(Cc4ccc5c(c4)OCO5)CC3)C2)n[nH]1 (centres unmarked)	10.4%
COc1ccccc1C(=O)NCCC(=O)NCC1CCCO1 (centres unmarked)	-7.27%
Cc1cccc(NC(=O)CN2CCc3cc4c(cc3C2C)OCCCO4)c1 (centres unmarked)	11.2%
CC(=O)c1ccc(OCc2ccc(Oc3c(Cl)cccc3[N+](=O)[O-])cc2)cc1	13.6%
Cn1c(=O)c2c(nc(SCC(=O)Nc3ccccc3N3CCCCC3)n2C)n(C)c1=O	-5.72%
COc1ccc(-n2nc([N+](=O)[O-])c(=NC3CCN(Cc4ccccc4)CC3)n2O)cc1	-6.46%
O=C(OCC(=O)N1CCCc2ccccc21)c1ccc(Br)o1	9.32%
CC(CCc1ccccc1)NC(=O)COC(=O)c1ccc(S(C)(=O)=O)c([N+](=O)[O-])c1 (centres unmarked)	-10.4%
CCOC(=O)C1CCN(C(=O)C2CCN(S(=O)(=O)c3c(C)noc3C)CC2)CC1	3.07%
CN(C)CCCn1c(NC(=O)C2CCCCC2)nc2ccccc21	0.162%
CCOCCCNC(=O)Cn1ncc2c(=O)oc3ccccc3c21	0.347%
CCOC(=O)[C@@H]1[C@H]2COc3ccc(Br)cc3[C@H]2N2C(=O)N(c3cccc(F)c3)C(=O)[C@]12C	2.36%
CN(NS(C)(=O)=O)c1c(C#N)c(C(F)(F)F)nn1C	3.87%
O=C(/C=C/c1ccco1)NCC1(c2ccccc2)CCCC1	9.98%
CCOc1ccc(S(=O)(=O)Nc2cccc(Cl)c2)cc1	8.83%
Cc1ccccc1C(=O)NC1CCN(Cc2nnnn2CCc2ccccc2)CC1	6.17%
Cc1cccc(C(=O)OCN2C(=O)c3ccccc3C2=O)c1[N+](=O)[O-]	15.4%
O=C(CSC1c2ccccc2C(=O)N1c1ccccc1)N1CCOCC1 (centres unmarked)	-2.34%
COc1ccc(C(=O)Nc2c(F)c(F)c(F)c(F)c2F)c(OC)c1	9.31%
O=S(=O)(NCCN1CCOCC1)c1ccc2c(c1)OCCO2	14%

SMILES	hERG current change (%, negative = inhibition) at 1uM
Br.O=C(CN1C2=NCCN2c2ccccc21)C12CC3CC(CC(C3)C1)C2	-47.7%
COc1ccc(CC(=O)Nc2cc(C)ccn2)cc1	9.2%
Cn1c(CNC(=O)CCNC(=O)c2ccccc2F)cc(=O)n(C)c1=O	12.3%
CC(=O)Nc1nc2c(ccc3ccccc32)s1	15.1%
Cc1ccc(CN2CCN(C(=O)CCc3ccccc3)CC2)cc1	5.49%
CC1CCN(S(=O)(=O)c2ccc3[nH]c(=O)cc(C(=O)O)c3c2)CC1	8.95%
O=C(Nc1cnccn1)c1cccs1	-3.02%
CCc1nnc(SCC(=O)Nc2ccc(C(C)=O)cc2)nc1CC	8.53%
COC(=O)CCC(=O)Nc1ccc(OC)cc1	11.5%
O=C(O)Cn1c(=O)c2c3c(sc2n(Cc2ccccc2F)c1=O)CCCC3	10.5%
CSc1nnc(-c2sc3cc(C(F)(F)F)cnc3c2-c2cccnc2)n1C	5.39%
Cc1ccc(COc2ccc(/C=N/NC(=O)c3ccc(CN4CCOCC4)cc3)cc2)cc1	10.2%
COc1ccccc1NC(=O)N1CCN(c2cc(-c3ccccc3)nc3ncnn23)CC1	-13.9%
COc1ccc2cc(CCNC(=O)C3CC3)c(=O)[nH]c2c1	12%
CCOC(=O)CNC(=O)CSc1nnc(Cn2c(=O)sc3ccccc32)n1-c1ccccc1C	3.46%
CCOC(=O)COc1ccc(CCNC(C)=O)cc1	17.8%
COc1ccc(/C=C/C(=O)c2ccc(O)cc2)cc1COc1ccc(F)cc1	6.99%
COc1ccccc1C(=O)NC(C(=O)NCCc1nc2ccccc2[nH]1)=C(C)C	13.8%
O=C1CCC(C(=O)NC2(C(=O)NC3CCCCC3)CCCCC2)N1 (centres unmarked)	14.1%
S=c1[nH]nc(CCSCc2ccccc2)n1-c1ccccc1	19.2%
